{"source": "paper PMC6366758", "about": "(2019)", "key": {"R1.42": {"biological_target": "R1.42", "assay": "SPR"}, "RSHZ19": {"biological_target": "RSHZ19", "assay": "SPR"}}}
{"binder": "Post-fusion F (other) chain 1: not shown chain 2: not shown", "values": [{"measurement": "Kd", "setting": "R1.42", "value": 0.11, "unit": "nM"}, {"measurement": "koff", "setting": "R1.42", "value": "3.26e-05", "unit": "s⁻¹"}, {"measurement": "Kd", "setting": "RSHZ19", "value": 0.08, "unit": "nM"}, {"measurement": "koff", "setting": "RSHZ19", "value": "1e-05", "unit": "s⁻¹"}]}
